Test results taken from PubChem BioAssay (NCATS).
The shares of active, inactive and inconclusive entries below differ from those in the screen. For part of these data: Potencies of inconclusive entries are doubtful fits and often do not repeat. Calls of active or inactive are those of the source. Unless noted, calls follow the shape of the dose curve; as a rule, active = well fitted curve in the direction sought with a large enough effect; inconclusive = small, poorly fitted or top-dose-only effect, or another doubt; inactive = no such curve, though single readings can be large; an effect the other way counts as inactive or inconclusive.

What was measured:
[1] = Cell Viability - Hek293 (AID 427;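 active = compounds whose dose-response curve shows a full or clear partial loss of cell viability, called from curve shape rather than a numeric limit; inconclusive = weak partial curves or an effect only at the top dose; inactive = no dose-dependent loss of viability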;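 also: potency is read from the fitted curve at half-maximal effect; cells exposed to compound for 40 hours at 37 °C before reading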); conditions: qHTS
How it was run: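 HEK293 cells in complete medium were exposed to compound for 40 hr at 37 °C, then cellular ATP was read by CellTiter-Glo luminescence. Data were normalized to DMSO (basal) and 100 uM tamoxifen (100% inhibition), and AC50 came from Hill fits.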

[2] = Cell Viability - NIH 3T3 (AID 541); conditions: NIH 3T3 cell viability, qHTS; activity change, negative = cytotoxicity: at 92.2 µM (top of the series);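 also: plate controls were DMSO alone for no effect and tamoxifen positive control for full effect; nearly all actives have a fitted effect of over 25% in size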
How it was run: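 AC50 values reflect concentration-dependent loss of intracellular ATP in NIH 3T3 cells after 40 hr treatment in complete culture medium, quantified by luciferase-based luminescence.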

[3] = biological target: Cytochrome P450 3A4 (Homo sapiens) (UniProt P08684); test: qHTS Assay for Inhibitors and Substrates of Cytochrome P450 3A4 (AID 884); conditions: recombinant CYP3A4, Luciferin-PPXE luminescence; series mostly up to 57.1 µM; also: % is scaled to controls: 0 for no effect and ±100 for the full control effect; nearly all actives have a fitted effect of over 50% in size
Sequence of UniProt P08684 (P08684 whole entry, looked up): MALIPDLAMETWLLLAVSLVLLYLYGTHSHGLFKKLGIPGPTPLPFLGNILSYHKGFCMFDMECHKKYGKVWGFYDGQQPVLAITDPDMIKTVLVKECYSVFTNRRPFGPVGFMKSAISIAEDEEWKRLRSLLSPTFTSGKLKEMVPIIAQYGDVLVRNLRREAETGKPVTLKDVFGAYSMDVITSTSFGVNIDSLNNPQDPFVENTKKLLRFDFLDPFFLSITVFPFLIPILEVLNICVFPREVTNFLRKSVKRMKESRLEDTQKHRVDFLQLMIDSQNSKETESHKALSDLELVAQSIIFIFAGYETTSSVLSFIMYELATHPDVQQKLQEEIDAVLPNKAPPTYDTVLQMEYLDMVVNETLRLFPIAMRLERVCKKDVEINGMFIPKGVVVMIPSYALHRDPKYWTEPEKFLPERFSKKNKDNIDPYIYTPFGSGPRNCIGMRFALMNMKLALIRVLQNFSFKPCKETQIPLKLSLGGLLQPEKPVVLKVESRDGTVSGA
How it was run: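 20 nM human CYP3A4 with 25 uM Luciferin-PPXE (at KM) in 200 mM KPO4, preincubated 10 min with compound; NADPH regeneration started a 60 min RT reaction. Luciferin detected by luminescence, normalized to 57 uM ketoconazole as full inhibition.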

[4] = MultiTox-Fluor Cytotoxicity Assay - LYMP1-002 - Dead Cells (AID 960); conditions: LYMP1-002 lymphoblastoid cells, dead-cell protease fluorescence; cytotoxicity (dead cells): at 46.1 µM (top of the series);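 also: 0% = DMSO and 100% = tetraoctylammonium bromide; nearly all actives have a fitted effect of over 60% in size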
How it was run: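 Acute cytotoxicity in a human lymphoblastoid line is scored as rising dead-cell protease signal after 16 hr exposure at 37 C, measured fluorometrically (485/520).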

[5] = biological target: Peroxisome proliferator-activated receptor gamma (Homo sapiens) (UniProt P37231); test: qHTS assay for small molecule antagonists of peroxisome proliferator-activated receptor gamma signaling (AID 588537; active = well fitted inhibition curve with a large enough effect in the signal ratio, with a control signal flat, not every such curve was filed as active; inconclusive = small, poorly fitted or top-dose-only effect, or effect the other way, or a change in a side signal; the % refers to the signal ratio;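 also: reporter cells co-stimulated with 50 nM rosiglitazone agonist during compound treatment; % of control where 0% means no effect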); conditions: HEK293 PPARg-UAS-bla, beta-lactamase ratio, antagonist mode; activity, negative = inhibition: at 76.8 µM (top of the series)
How it was run: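 Inhibitors of agonist-stimulated UAS-bla reporter activity were sought in HEK293 cells; rosiglitazone (50 nM) defined full signal and DMSO baseline. Curves fitted to Hill model gave IC50 and efficacy.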

[6] = biological target: Retinoic acid receptor RXR-alpha (Homo sapiens) (UniProt P19793); test: qHTS assay for small molecule agonists of retinoid X receptor alpha signaling (AID 588544; calls by dose curve;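 also: 0% = DMSO basal wells and 100% = reference agonist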); conditions: HEK293T RXRa-UAS-bla, beta-lactamase reporter, 18 h; activation: at 76.7 µM (top of the series) unless noted
Sequence of UniProt P19793 (P19793 whole entry, looked up): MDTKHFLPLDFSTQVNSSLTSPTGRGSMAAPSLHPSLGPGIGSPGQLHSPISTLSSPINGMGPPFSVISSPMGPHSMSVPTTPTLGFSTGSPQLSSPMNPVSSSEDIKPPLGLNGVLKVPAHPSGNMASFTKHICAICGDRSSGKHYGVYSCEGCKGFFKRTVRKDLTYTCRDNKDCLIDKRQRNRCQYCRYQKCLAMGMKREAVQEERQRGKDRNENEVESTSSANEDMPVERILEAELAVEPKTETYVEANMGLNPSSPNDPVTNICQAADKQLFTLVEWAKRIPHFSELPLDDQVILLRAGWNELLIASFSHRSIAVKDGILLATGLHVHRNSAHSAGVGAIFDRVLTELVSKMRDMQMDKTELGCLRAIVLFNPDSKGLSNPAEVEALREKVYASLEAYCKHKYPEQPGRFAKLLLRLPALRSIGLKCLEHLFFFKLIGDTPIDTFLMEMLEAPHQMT

[7] = qHTS assay for small molecule agonists of the antioxidant response element (ARE) signaling pathway (AID 651741; active = well fitted activation curve with a large enough effect in the signal ratio; inconclusive = small, poorly fitted or top-dose-only effect, or effect the other way, or a change in a side signal; the % refers to the signal ratio; also: potency is read from the fitted curve at half-maximal effect); conditions: HepG2 ARE-bla reporter, beta-lactamase FRET ratio, 16 h; activation: at 96 µM (top of the series) unless noted
How it was run: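 Seeding 2,000 ARE-bla HepG2 cells per well preceded a 5 h incubation at 37 C/5% CO2 and a 16 h compound exposure at 37 C. Beta-lactamase reporter activity was then quantified by fluorescence after 2 h with LiveBLAzer B/G FRET substrate.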

[8] = qHTS assay for small molecule activators of the nuclear factor-kappa B (NF-kB) signaling pathway (AID 651749; active = well fitted activation curve with a large enough effect in the signal ratio; inconclusive = small, poorly fitted or top-dose-only effect, or a change in a side signal; the % refers to the signal ratio; also: % of control where 0% means no effect); conditions: NF-kB-bla ME-180 cells, beta-lactamase FRET ratio, 16 h; activation: hits give high values
How it was run: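 Stably transfected ME-180 line; NF-kB response element upstream of beta-lactamase. Treatment: compound or DMSO, 16 hr. Detection: fluorescent FRET substrate.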

[9] = qHTS assay for small molecule disruptors of the mitochondrial membrane potential - 1 hr assay (AID 651754; calls by dose curve; also: % is scaled to controls: 0 for no effect and ±100 for the full control effect; nearly all actives have a fitted effect of over 35% in size); conditions: ratio change, negative = depolarisation: at 92.2 µM (top of the series)
How it was run: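 Steps: seed HepG2 cells and let attach overnight; pin-transfer compound or vehicle; incubate 1 hr at 37C; add Mito-MPS dye for 30 min; read two-channel fluorescence for monomer and aggregate forms.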

[10] = qHTS assay to identify small molecules that stimulate interleukin-8 (IL-8) secretion (AID 651758; active = well fitted activation curve with a large enough effect in the signal ratio; inconclusive = small, poorly fitted or top-dose-only effect, or effect the other way, or a change in a side signal; the % refers to the signal ratio; also: 0% is about no effect); conditions: HTRF ratio (665/615); activation: at 92.2 µM (top of the series)
How it was run: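 Secreted IL-8 measured by TR-FRET sandwich (cryptate and XL665 antibodies) from THP-1 cells exposed to compound overnight (16 hrs, 37 C).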

[11] = qHTS assay for cell viability of HEK293 cells (AID 743288); conditions: ATP luminescence (CellTiter-Glo), 18 h; max response: hits give low values; also: % is scaled to controls: 0 for no effect and ±100 for the full control effect; nearly all actives have a fitted effect of over 50% in size
How it was run: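 Parental HEK293 cells, 2,000 per well, preincubated at least 5 h at 37 C, then exposed to compounds in DMSO for 18 h at 37 C. Viability by CellTiter-Glo ATP luminescence after 30 min at room temperature.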

[12] = biological target: Mitogen-activated protein kinase 10 (Mus musculus) (UniProt Q61831); test: JNK3 AlphaScreen Assay (AID 530; active = well fitted curve in either direction with a large enough effect, not every such curve was filed as active; inconclusive = small, poorly fitted or top-dose-only effect, or another doubt;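 also: kinase came from lysate of stimulated human HepG2 cells; signal reports phosphorylation of biotinylated GST-cJun 1-79 at Ser73 with 10 µM ATP; potency is read from the fitted curve at half-maximal effect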); conditions: JNK3 lysate, c-Jun phosphorylation; activity change, negative = inhibition: at 57.1 µM (top of the series)
How it was run: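 Room-temperature AlphaScreen kinase assay; pre-activated HepG2 lysate as JNK3 source, biotin-GST-cJun(1-79) substrate, 10 uM ATP, compound 15 min preincubation.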

[13] = Cell Viability - N2a (AID 540); conditions: N2a mouse neuroblastoma cell viability; activity change, negative = cytotoxicity: at 92.2 µM (top of the series);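 also: plate controls were DMSO alone for no effect and tamoxifen control for full effect; nearly all actives have a fitted effect of over 45% in size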
How it was run: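 First, 1500 N2a cells per well incubate 5 hr at 37 °C; next, compounds are added and incubated 40 hr at 37 °C; finally CellTiter-Glo is added and luminescence read after 20 min, with AC50 derived by Hill modeling.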

[14] = MultiTox-Fluor Cytotoxicity Assay - LYMP1-001 - Live Cells (AID 947); conditions: LYMP1-001 lymphoblastoid cells, live-cell protease fluorescence viability; series mostly up to 92.2 µM;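 also: 0% = DMSO only and full inhibition = tetraoctylammonium bromide control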
[15] = Cell Viability - LYMP2-024 (AID 988); conditions: LYMP2-024 lymphoblastoid cell viability; activity change, negative = cytotoxicity: at 92.2 µM (top of the series);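 also: plate controls were DMSO only for no effect and 92 µM tetraoctylammonium bromide for full effect; nearly all actives have a fitted effect of over 60% in size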
How it was run: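 Acute toxicity is measured as concentration-dependent loss of intracellular ATP in a human lymphoblastoid line treated 24 hours at 37 C. Luciferase luminescence quantifies ATP; AC50 values come from standard Hill-equation modelling.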

[16] = biological target: Peroxisome proliferator-activated receptor gamma (Homo sapiens) (UniProt P37231); test: qHTS assay for small molecule agonists of peroxisome proliferator-activated receptor gamma signaling (AID 588536; active = well fitted curve in the direction sought with a large enough effect in the signal ratio, with a control signal flat, not every such curve was filed as active; inconclusive = small, poorly fitted or top-dose-only effect, or effect the other way, or a change in a side signal; inactive = no such curve, though single readings can be large or run the other way; the % refers to the signal ratio;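 also: 0% = DMSO basal wells and 100% = rosiglitazone at 2 µM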); conditions: HEK293 PPARg-UAS-bla, beta-lactamase ratio, 16 h; activation: at 76.7 µM (top of the series), percent of rosiglitazone response, DMSO as zero
How it was run: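 GeneBLAzer PPAR-gamma-UAS-bla HEK293 cells in 1% charcoal/dextran-treated FBS medium were treated 16 h at 37 C with compounds. Beta-lactamase activity was read by CCF4 ratio (460/530 nm). Response was normalized to 2 uM rosiglitazone (100%) and DMSO, then Hill-fitted for EC50 and efficacy.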

[17] = biological target: Tumor necrosis factor (Homo sapiens) (UniProt P01375); test: qHTS assay to identify small molecules that stimulate Tumor Necrosis Factor-alpha (TNF-alpha) secretion (AID 651757; active = well fitted curve in the direction sought with a large enough effect in the signal ratio; inconclusive = small, poorly fitted or top-dose-only effect, or a change in a side signal; inactive = no such curve, though single readings can be large or run the other way; the % refers to the signal ratio; also: potency is read from the fitted curve at half-maximal effect); conditions: Human cells, HTRF 665/615 ratio; activation (TNF-alpha secretion): at 92.2 µM (top of the series)
Sequence of UniProt P01375 (P01375 whole entry, looked up): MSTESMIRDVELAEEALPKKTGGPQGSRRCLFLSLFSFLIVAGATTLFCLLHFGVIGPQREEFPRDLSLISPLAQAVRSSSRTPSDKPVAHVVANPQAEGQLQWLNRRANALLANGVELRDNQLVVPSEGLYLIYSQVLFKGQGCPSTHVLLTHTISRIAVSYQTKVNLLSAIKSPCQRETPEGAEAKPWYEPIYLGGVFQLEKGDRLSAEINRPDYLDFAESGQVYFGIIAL
How it was run: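 Secreted TNF-alpha from compound-treated THP-1 cells (17 hrs, 37 C) was quantified with a homogeneous time-resolved fluorescence antibody assay.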

[18] = Cell Viability - H-4-II-E (AID 543); conditions: H-4-II-E rat hepatoma viability; series mostly up to 92.2 µM; also: % is scaled to controls: 0 for no effect and ±100 for the full control effect; nearly all actives have a fitted effect of over 35% in size
How it was run: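 Here, cytotoxicity is measured in the rat hepatoma line H-4-II-E as loss of intracellular ATP after 40 hr compound treatment, detected by luciferase luminescence.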

[19] = Cellular Toxicity (caspase-3) SHSY5Y (AID 657); conditions: SH-SY5Y caspase-3 activation; series mostly up to 91.7 µM
How it was run: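 SH-SY5Y human neuroblastoma cells, 1500/well, exposed to compound for 16 hours at 37 °C in complete medium. Caspase-3/7 activity read by Caspase-Glo luminescence after 1 hr at room temperature, normalized to DMSO and 10 uM staurosporine; AC50 from Hill fit.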

[20] = Cell Viability - LYMP2-003 (AID 965); conditions: LYMP2-003 lymphoblastoid cell viability; series mostly up to 92.2 µM;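 also: cells exposed to compounds for 24 h before reading; 0% = DMSO only and full effect = 92 µM tetraoctylammonium bromide; nearly all actives have a fitted effect of over 50% in size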
How it was run: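 Human lymphoblastoid LYMP2-003 cells, 2500/well, exposed to compounds for 24 h at 37 C in complete medium. Viability read as intracellular ATP by CellTiter-Glo luminescence; AC50 from Hill-equation fits of qHTS concentration-response data.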

[21] = Cell Viability - LYMP2-005 (AID 967); conditions: LYMP2-005 lymphoblastoid cell viability; series mostly up to 92.2 µM;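 also: plate controls were DMSO only for no effect and 92 µM tetraoctylammonium bromide control for full effect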
How it was run: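 Human lymphoblastoid LYMP2-005 cells, 2,500 per well in complete medium, rested 5 h at 37C then compound-treated 24 h at 37C. Intracellular ATP read by CellTiter-Glo luminescence after 30 min at room temperature; AC50 from Hill-equation fits of concentration-response data.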

[22] = biological target: Estrogen receptor (Homo sapiens) (UniProt P03372); test: qHTS assay for small molecule agonists of estrogen receptor alpha signaling (AID 588514; calls by dose curve;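 also: 0% = vehicle only and 100% = reference agonist; nearly all actives have a fitted effect of over 70% in size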); conditions: ER-alpha-UAS-bla HEK293, beta-lactamase ratio, 18 h; activation: at 76.8 µM (top of the series), percent of full estradiol response, vehicle zero
Sequence of UniProt P03372 (P03372 whole entry, looked up): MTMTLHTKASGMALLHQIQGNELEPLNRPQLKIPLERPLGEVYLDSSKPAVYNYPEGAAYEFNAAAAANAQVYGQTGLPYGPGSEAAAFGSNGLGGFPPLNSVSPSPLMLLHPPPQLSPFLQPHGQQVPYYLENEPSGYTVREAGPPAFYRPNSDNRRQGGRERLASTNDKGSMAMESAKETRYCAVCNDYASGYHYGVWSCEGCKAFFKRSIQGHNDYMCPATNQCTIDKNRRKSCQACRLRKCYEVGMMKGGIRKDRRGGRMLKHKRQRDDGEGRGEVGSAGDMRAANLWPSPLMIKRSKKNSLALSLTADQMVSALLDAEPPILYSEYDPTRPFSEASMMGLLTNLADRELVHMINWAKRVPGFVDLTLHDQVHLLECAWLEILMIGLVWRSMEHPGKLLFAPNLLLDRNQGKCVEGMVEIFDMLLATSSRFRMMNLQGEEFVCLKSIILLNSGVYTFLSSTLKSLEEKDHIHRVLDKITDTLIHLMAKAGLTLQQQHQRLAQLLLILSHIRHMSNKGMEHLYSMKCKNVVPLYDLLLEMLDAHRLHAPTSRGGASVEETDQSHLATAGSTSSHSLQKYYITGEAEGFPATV
How it was run: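 Reporter-gene assay. […] controls beta-lactamase in HEK 293 GripTite cells; after 18 hrs with compound, CCF4 substrate is added for 2 hrs and fluorescence is read.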

[23] = biological target: Glucocorticoid receptor (Homo sapiens) (UniProt P04150); test: qHTS assay for small molecule agonists of glucocorticoid receptor signaling (AID 588532; active = well fitted curve in the direction sought with a large enough effect in the signal ratio, with a control signal flat; inconclusive = small, poorly fitted or top-dose-only effect, or a change in a side signal; inactive = no such curve, though single readings can be large or run the other way; the % refers to the signal ratio;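 also: 100% = dexamethasone at 0.1 µM and 0% = DMSO only wells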); conditions: HeLa MMTV-bla, beta-lactamase ratio, agonist, 18 h; activation: hits give high values, percent of dexamethasone control, DMSO zero
Sequence of UniProt P04150 (P04150 whole entry, looked up): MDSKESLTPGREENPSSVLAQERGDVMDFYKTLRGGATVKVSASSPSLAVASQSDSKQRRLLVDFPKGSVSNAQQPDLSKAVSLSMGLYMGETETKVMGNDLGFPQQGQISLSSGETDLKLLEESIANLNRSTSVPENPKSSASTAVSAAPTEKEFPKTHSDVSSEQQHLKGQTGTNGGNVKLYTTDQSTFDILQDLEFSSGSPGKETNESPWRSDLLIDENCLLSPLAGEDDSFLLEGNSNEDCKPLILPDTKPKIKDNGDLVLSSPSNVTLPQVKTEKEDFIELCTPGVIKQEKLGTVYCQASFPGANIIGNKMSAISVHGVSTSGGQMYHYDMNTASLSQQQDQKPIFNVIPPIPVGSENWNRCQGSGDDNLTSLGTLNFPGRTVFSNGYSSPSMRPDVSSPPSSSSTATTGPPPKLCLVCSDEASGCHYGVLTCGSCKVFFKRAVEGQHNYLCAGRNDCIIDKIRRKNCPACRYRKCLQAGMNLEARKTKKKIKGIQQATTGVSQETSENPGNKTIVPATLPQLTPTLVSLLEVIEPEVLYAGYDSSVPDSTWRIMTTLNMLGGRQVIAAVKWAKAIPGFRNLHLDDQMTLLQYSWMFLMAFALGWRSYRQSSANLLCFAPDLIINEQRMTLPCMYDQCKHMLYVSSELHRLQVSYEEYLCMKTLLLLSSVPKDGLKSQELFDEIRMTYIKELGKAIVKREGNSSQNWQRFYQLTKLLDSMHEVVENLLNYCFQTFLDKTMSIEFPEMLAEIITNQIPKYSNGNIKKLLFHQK
How it was run: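 Agonist-mode qHTS: GRE-driven beta-lactamase in HeLa cells exposed 18 h to titrated compounds (up to 92 uM), then CCF4 ratio read after 2 h at RT; Hill-fitted EC50, efficacy relative to 0.1 uM dexamethasone.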

[24] = biological target: Peroxisome proliferator-activated receptor delta (Homo sapiens) (UniProt Q03181); test: qHTS assay for small molecule antagonists of peroxisome proliferator-activated receptor delta signaling (AID 588535; active = well fitted inhibition curve with a large enough effect in the signal ratio, with a control signal flat, not every such curve was filed as active; inconclusive = small, poorly fitted or top-dose-only effect, or effect the other way, or a change in a side signal; inactive = no such curve, though single readings can be large or run the other way; the % refers to the signal ratio); conditions: HEK293T PPARd-UAS-bla, beta-lactamase FRET ratio, 18 h; activity change, negative = inhibition: at 76.7 µM (top of the series)
Sequence of UniProt Q03181 (Q03181 whole entry, looked up): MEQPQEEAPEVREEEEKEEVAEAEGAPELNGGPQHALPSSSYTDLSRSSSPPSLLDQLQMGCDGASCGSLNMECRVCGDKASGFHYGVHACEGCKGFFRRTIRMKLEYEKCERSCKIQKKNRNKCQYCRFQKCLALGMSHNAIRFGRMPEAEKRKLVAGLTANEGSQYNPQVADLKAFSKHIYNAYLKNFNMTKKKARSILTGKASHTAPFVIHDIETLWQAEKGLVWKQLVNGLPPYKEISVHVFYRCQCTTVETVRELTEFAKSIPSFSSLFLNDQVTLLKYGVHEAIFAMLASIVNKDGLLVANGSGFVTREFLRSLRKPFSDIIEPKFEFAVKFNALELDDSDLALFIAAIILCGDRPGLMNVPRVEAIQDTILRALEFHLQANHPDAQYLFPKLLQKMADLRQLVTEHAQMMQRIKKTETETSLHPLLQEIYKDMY
How it was run: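 Cell-based beta-lactamase assay in antagonist mode: 4000 HEK293T PPAR-delta-UAS-bla cells per well, 5 hr preincubation then 18 hr compound incubation at 37 C. IC50 obtained by Hill equation fitting.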

[25] = biological target: Vitamin D3 receptor (Homo sapiens) (UniProt P11473); test: qHTS assay for small molecule antagonists of vitamin D receptor signaling (AID 588541; calls by dose curve;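 also: receptor activated by calcitriol during compound treatment; % is scaled to controls: 0 for no effect and ±100 for the full control effect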); conditions: HEK293T VDR-UAS-bla, beta-lactamase ratio, antagonist mode; activity change, negative = inhibition: at 76.7 µM (top of the series)
[26] = qHTS assay for small molecule agonists of the antioxidant response element (ARE) signaling pathway measured by Nrf2-dependant transcriptional activity (AID 720636; active = well fitted curve in the direction sought with a large enough effect in the repeat runs; inconclusive = weak or mixed curves; inactive = no such curve, though single readings can be large; an effect the other way counts as inactive or inconclusive;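 also: HepG2 cells with an ARE-driven luciferase reporter; % of control where 0% means no effect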); conditions: ARE-luc HepG2, Nrf2 luciferase reporter, 16 h; series mostly up to 92.4 µM
How it was run: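 Cells: ARE-luc HepG2 with Nrf2-responsive luciferase. Medium contained 1% dialyzed FBS. Compound exposure lasted 16 hr at 37 C and 5% CO2, followed by ONE-Glo luciferase detection.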

[27] = Cell Viability - LYMP1-003 - Assay at 40 hr (AID 964); conditions: LYMP1-003 lymphoblastoid viability; series mostly up to 92.2 µM; also: % is scaled to controls: 0 for no effect and ±100 for the full control effect; nearly all actives have a fitted effect of over 60% in size
How it was run: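 This qHTS cytotoxicity screen treats human lymphoblastoid cells (LYMP1-003) with compounds for 40 hr and quantifies cellular ATP via luciferase luminescence.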

[28] = biological target: Estrogen receptor (Homo sapiens) (UniProt P03372); test: qHTS assay for small molecule antagonists of estrogen receptor alpha signaling (AID 588513; active = well fitted curve in the direction sought with a large enough effect in the signal ratio, with a control signal flat, not every such curve was filed as active; inconclusive = small, poorly fitted or top-dose-only effect, or effect the other way, or a change in a side signal; inactive = no such curve, though single readings can be large or run the other way; the % refers to the signal ratio; also: % is scaled to controls: 0 for no effect and ±100 for the full control effect); conditions: ER-alpha-UAS-bla HEK293, beta-lactamase ratio, antagonist mode; activity, negative = inhibition: at 76.9 µM (top of the series) unless noted
How it was run: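 ER-alpha-UAS-bla GripTite HEK 293 cells in 2% charcoal/dextran-treated FBS medium; compounds titrated (1:2, duplicate), then stimulated with 0.5 nM 17-beta-estradiol for 18 h at 37C. CCF4 beta-lactamase fluorescence; Hill-fit IC50 and efficacy.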

[29] = qHTS assay for small molecule disruptors of the mitochondrial membrane potential - 5 hr assay (AID 651755; calls by dose curve; also: % is scaled to controls: 0 for no effect and ±100 for the full control effect; nearly all actives have a fitted effect of over 40% in size); conditions: JC-1-type ratio dye; ratio change, negative = disruption: at 92.2 µM (top of the series)
How it was run: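 HepG2, 2,000 cells/well, overnight attach; cpd or DMSO 5 hr, 37C/5% CO2; Mito-MPS 30 min 37C; fluor 490/535 + 540/590 nm.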
Tags tell the direction and shape of the fitted curve.

COc1ccc(OC)cc1
inactive: Potency [1] > 92 µM | activity change, negative = cytotoxicity [2] 12.9% | Potency [3] | Potency [4] | Potency [6] | activation [8] -2.07% | Potency [9] | max response [11] -1.36%
inconclusive: activity, negative = inhibition [5] 6.96% | Potency [7] 66.8 µM [activator, partial curve, poor fit] | activation [10] 12.6%

Nc1cc(C(=O)O)c(O)c(S(=O)(=O)O)c1
inactive: Potency [1] > 92 µM | Potency [13] | activity change, negative = cytotoxicity [2] -24.6% | Potency [14] | Potency [15] | Potency [16]
inconclusive: Potency [12] 15.8 µM [activator, full curve, poor fit] | activity, negative = inhibition [5] 9.48% | Potency [17] 66.8 µM [activator, partial curve, poor fit] | activation [10] -6.57%

O=C1CCc2ccccc2O1
inconclusive: activation [22] 46.7% | activity change, negative = inhibition [24] 5.86% | activity change, negative = inhibition [25] -2.43% | Potency [7] 75 µM [activator, partial curve, poor fit] | activation [10] -3.85%
inactive: Potency [1] > 92 µM | Potency [18] | Potency [19] | Potency [20] | Potency [21] | activation [23] -2.22% | Potency [5] | Potency [6] | Potency [26]

Nc1ccc(Cl)cc1[N+](=O)[O-]
inactive: Potency [1] > 92 µM | Potency [27] | Potency [28] | Potency [24] | Potency [5]
inconclusive: ratio change, negative = disruption [29] -26.2% | activation [10] -17.9%
